# Experiments:
# [1] = biological target: T1, human GPC-3 on cells (SK Hep1:hGPC-3 transfectants; HepG2) (human, UniProt P51654 25-554); experiment: flow cytometry titration on human GPC-3 transfected SK-Hep1 cells, geometric mean fluorescence, detection with anti-Tlc antiserum and anti-rabbit IgG-PE
# T1 construct: whole, on cells; The same molecule is used for the transfected SK-Hep1 cells and the GPC-3 positive HepG2 cells; The cell line is named under assay; also called Glypican-3
# Method: Empty vector control cells were also obtained and analyzed in parallel. Expression of GPC-3 was also confirmed using a known mouse anti-GPC-3 clone 1G12 monoclonal antibody (DOS).
# In order to assess binding of muteins to the GPC-3 on the cell surface, cells were incubated on ice with increasing concentrations of each lipocalin mutein for 2 hr. Following two washing steps cells were incubated with a secondary rabbit anti-Tlc scaffold antiserum was employed for 30 min. […] Flow cytometry analysis was performed and geometric mean values were compiled in FlowJo (Treestar software) and fitted to a sigmoidal dose response model in the Prism 5 program (GraphPad) to obtain EC50 values.
# [2] = biological target: T2, biotinylated human GPC-3 (R&D Systems) (human, UniProt P51654 25-559, randomly biotinylated via Lysine residues using EZ-Link Sulfo-NHS-LC-LC-Biotin); experiment: direct ELISA on biotinylated human GPC-3 captured via Neutravidin
# T2 construct: Bought protein; also called biotinylated recombinant human GPC-3 (R&D 2119-GP/CF)
# Method: An ELISA was performed to verify the binding affinity and specificity of the selected Tlc muteins. Therefore, a constant concentration of 1 μg/ml biotinylated human GPC-3 (R&D Systems) was captured on the surface of a polystyrol plate (Greiner, GE) via BSA blocked Neutravidin (Thermo Scientific, 5 μg/ml). Two step dilution series of purified Tlc muteins were incubated with the captured GPC-3 for 1 h at room temperature and detected either via the Strep-tag II using a rabbit anti-strep-tag II polyconal antibody (GenScript, USA) or by using a scaffold-specific polyclonal rabbit antibody. In both cases an anti-rabbit-IgG-HRP conjugate (Abcam, UK) was employed as secondary detection antibody.
# The absorption ΔA at 320 nm was measured in an ELISA reader (Tecan, GE) and the data were fitted with Graphpad Prism software (Statcom, USA).
binder,measurement,setting,value
protein of SEQ ID NO: 10 (negative-control protein) (other) ASDEEIQDVSGTWYLKAMTVDRECPEMNLESVTPMTLTTLEGGNLEAKVTMLISGRSQEVKAVLEKTDEPGKYTADGGKHVAYIIRSHVKDHYIFYSEGECHGKPVPGVWLVGRDPKNNLEALEDFEKAAGARGLSTESILIPRQSETSSPG,binding result,[1],no binding (tested: 10000 nM)
same,binding result,[2],no binding (tested: about 500 nM)

# — patent publication US20170066807A1 (Pieris, published 2017)
